Assay results published in article PMC4336329 (PLoS ONE, 2015).
Hit rate of the full screen: of about 310,000 compounds, about 14,000 (4.5%) showed an effect of 50% or more. The effect is printed as a negative number. This is one part of the list.

target: human ether-à-go-go-related gene (hERG) potassium channel (human, UniProt Q12809); test: primary screen, population patch clamp on CHO cells stably expressing hERG
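Note: peak tail current of the secondary pulse compared with the same well before compound.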

Chain of human ether-à-go-go-related gene (hERG) potassium channel (Q12809 whole entry, looked up): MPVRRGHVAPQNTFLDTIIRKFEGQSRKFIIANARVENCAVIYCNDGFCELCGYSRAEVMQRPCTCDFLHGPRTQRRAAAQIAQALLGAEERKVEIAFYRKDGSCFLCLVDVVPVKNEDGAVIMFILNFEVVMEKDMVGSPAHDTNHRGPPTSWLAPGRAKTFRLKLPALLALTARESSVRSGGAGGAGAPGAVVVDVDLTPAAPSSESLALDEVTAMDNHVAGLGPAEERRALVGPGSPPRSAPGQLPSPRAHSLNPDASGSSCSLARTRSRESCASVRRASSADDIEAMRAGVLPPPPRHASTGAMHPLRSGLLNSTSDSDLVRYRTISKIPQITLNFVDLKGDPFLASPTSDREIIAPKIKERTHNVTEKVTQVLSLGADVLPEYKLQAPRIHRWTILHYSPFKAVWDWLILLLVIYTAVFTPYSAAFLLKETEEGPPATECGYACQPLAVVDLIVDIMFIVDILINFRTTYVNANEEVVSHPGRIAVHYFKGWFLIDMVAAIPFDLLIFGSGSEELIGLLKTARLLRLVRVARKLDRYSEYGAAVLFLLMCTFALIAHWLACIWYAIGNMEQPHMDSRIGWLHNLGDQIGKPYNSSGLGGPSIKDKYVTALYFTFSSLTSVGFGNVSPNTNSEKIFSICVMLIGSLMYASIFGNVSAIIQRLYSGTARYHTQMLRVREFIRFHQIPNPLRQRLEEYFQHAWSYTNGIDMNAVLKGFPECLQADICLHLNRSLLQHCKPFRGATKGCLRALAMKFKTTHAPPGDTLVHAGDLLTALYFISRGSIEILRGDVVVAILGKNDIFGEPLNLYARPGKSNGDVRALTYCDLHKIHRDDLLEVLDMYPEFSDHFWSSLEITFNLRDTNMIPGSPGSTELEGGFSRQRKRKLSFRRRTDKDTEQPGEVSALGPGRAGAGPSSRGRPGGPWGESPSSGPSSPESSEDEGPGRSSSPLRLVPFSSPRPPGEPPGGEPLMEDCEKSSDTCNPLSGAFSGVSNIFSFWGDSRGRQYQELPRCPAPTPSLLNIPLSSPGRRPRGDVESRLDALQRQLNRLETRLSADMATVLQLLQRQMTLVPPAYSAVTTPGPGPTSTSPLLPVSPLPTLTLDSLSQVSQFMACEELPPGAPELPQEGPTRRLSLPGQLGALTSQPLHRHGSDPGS

SMILES | hERG current change (%, negative = inhibition) at 10uM [%]
O=C(CCCn1c(=O)c2ccccc2n(Cc2cccc(F)c2)c1=O)NC1CCN(Cc2ccccc2)CC1 | -68.6
CN(Cc1nc2c(s1)CCCC2)C(=O)CCc1nnc(-c2ccc3c(c2)OCO3)o1 | 8.42
c1cncc(-c2noc(-c3ccc4ccccc4c3)n2)c1 | 19.3
c1ccc2c(SCc3cn4ccccc4n3)nncc2c1 | -34.4
Cc1c(C(=O)OCCOC(C)C)[nH]c2c1C(=O)CC(c1ccco1)C2 (stereo not drawn) | -18.3
Cc1cccc(C)c1N1CCN(C(=O)N2CCCCC2)CC1 | 15.1
COC(=O)c1cn(NC(=O)COc2ccc(Cl)cc2)c(=O)c2ccccc12 | 1.74
COC(=O)c1cccc(NC(=O)CSc2nnc(COc3cccc(C)c3)n2C)c1 | -1.42
CCOC(=O)c1c(C)[nH]c(C)c1C(=O)CSc1nc2ccccc2c(=O)n1-c1ccc(C)cc1 | 11.9
S=C1NC2(CCCCC2)Cc2ccccc21 | 12.4
CC(=O)c1cc2c(cc1N(C(=O)Cn1nnc3ccccc31)C(C(=O)NCCC(C)C)c1cccnc1)OCO2 (stereo not drawn) | 8.92
NS(=O)(=O)c1ccc(Nc2nc3ccccc3nc2NS(=O)(=O)c2cccc([N+](=O)[O-])c2)cc1 | 10.8
CCN1CC2C3CCC(C)(O3)C2C1 (stereo not drawn) | -73.1
Cn1c(=O)[nH]c2ccc([N+](=O)[O-])nc21 | 9.62
COc1ccc(N/C=C/C(=O)c2ccc(OC)c(OC)c2)cc1 | 17.5
CCCC(=Nc1ccccc1OC)C1=C(O)CC(c2ccccc2)CC1=O (stereo not drawn) | 0.706
CN(C(=O)CSc1ncnc2scc(-c3ccccc3)c12)C1CCS(=O)(=O)C1 (stereo not drawn) | -7.59
O=C(NCc1ccncc1)Nc1ccccc1F | 14.6
Cc1ccc(C(=O)Nc2ccc3[nH]c(=O)[nH]c3c2)c(C)c1 | 45.6
C=CCN(CC(=O)NCc1ccc(F)cc1)C(=O)c1csnn1 | -18.2
Clc1ccc(CNc2ncccn2)cc1 | 13.5
CCOC(=O)Cn1cc(C=O)c2ccccc21 | -2.22
CCOC(=O)c1ccc(NC(=O)Oc2ccccc2)cc1 | -7.53

SMILES | hERG current change (%, negative = inhibition) at 10uM [%]
CCc1cccc(NC(=O)CSCc2nc3sc(C)c(C)c3c(=O)[nH]2)c1 | 23.1
Cc1cnc(NC(=O)c2cc3ccccc3o2)s1 | 19.9
CC(Nc1n[nH]c(=O)[nH]c1=O)C(=O)N/N=C/c1cccs1 (stereo not drawn) | 20.4
O=C(CCN1C(=O)c2ccccc2C1=O)C1=NN[C@@H]2C(=O)N(c3cccc(F)c3)C(=O)[C@H]12 | 22.4
Nc1ccc(C23CC4CC(CC(O)(C4)C2)C3)cc1 | 6.83
CC(c1c(O)c2ccccc2[nH]c1=O)C1(C)CCC(O)C(C)(C)O1 (stereo not drawn) | -2.48
CCC(=O)N1CCc2cc(S(=O)(=O)CCC(=O)NCc3cccs3)ccc21 | -2.37
COc1ccc(Br)cc1CN1CCSCC1 | 14.4
CCn1ccnc1CN(C)Cc1nc(Cc2cccc(C(F)(F)F)c2)no1 | -60.8
O=[N+]([O-])/C=C/c1cn(Cc2ccccc2)c2ccccc12 | 3.66
Cc1ccc(N=CC2=C(O)CC(c3ccco3)CC2=O)cc1 (stereo not drawn) | -7.57
Cc1ccc(-c2nc(SCC(=O)NCCN3C(=O)CSC3=O)[nH]c2-c2ccc(C)cc2)cc1 | -9.15
O=C(CC1CCCCC1)NC1CCCC1 | -3.75
CC(=O)NC12CC3CC(C1)CC(C(=O)N(C)CC(=O)Nc1ccc(F)c(F)c1F)(C3)C2 | -17.7
Cc1ccc(NC(=O)c2cc(-c3cccc(O)c3)on2)cc1C | 5.27
CC(=O)C1C(c2ccccc2OC(F)F)NC(=O)NC1(O)C(F)(F)F (stereo not drawn) | 10.2
CCN(CC)c1ccc(NC(=O)c2ccc(=O)[nH]c2)cc1S(=O)(=O)Nc1ccc(OC)cc1 | -7.22
O=C(O)c1cc2c([nH]c1=O)CCCC2 | 14.1
CCCCCN(C(=O)CCC(=O)OCc1cc(C(C)=O)ccc1OC)c1c(N)n(CCCC)c(=O)[nH]c1=O | -35.3
CC(C(=O)NCc1ccccc1)N1CCN(c2ccc(F)cc2)CC1 (stereo not drawn) | -18.9
COc1c(Cl)cc(Cl)cc1C(=O)Nc1ccc(NC(C)=O)cc1 | 3.33
Cc1cccc(N2CCN(C(=O)CCn3c(=O)[nH]c4ccsc4c3=O)CC2C)c1 (stereo not drawn) | 21.5
